# In paper PMC12866851:
# By UniProt entry, the sequences of proteins in these tests, tags left out.
# UniProt Q15388: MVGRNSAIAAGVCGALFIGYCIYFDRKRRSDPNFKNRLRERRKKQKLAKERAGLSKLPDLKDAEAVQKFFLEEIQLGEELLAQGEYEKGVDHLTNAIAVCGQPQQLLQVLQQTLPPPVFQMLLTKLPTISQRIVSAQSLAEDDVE
# UniProt Q00987: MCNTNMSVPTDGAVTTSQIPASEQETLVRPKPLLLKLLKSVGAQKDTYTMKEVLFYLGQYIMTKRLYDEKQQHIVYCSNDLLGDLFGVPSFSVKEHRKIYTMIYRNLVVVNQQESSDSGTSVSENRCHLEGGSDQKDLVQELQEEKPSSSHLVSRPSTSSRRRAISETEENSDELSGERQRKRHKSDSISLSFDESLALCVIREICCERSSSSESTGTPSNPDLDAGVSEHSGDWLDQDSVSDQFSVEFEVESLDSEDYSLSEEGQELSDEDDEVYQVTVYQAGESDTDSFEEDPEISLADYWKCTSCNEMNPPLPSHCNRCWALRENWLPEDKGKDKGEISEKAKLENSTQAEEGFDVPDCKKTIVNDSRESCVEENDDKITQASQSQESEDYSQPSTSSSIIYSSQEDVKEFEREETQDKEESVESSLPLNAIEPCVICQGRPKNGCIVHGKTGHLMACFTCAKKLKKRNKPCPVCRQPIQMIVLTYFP
# These are yes or no findings as the source states them, for the method shown. In cells and extracts the contact can be indirect. Some binding calls cover weakened binding; strength is not graded here. For some assays here: Where a sequence is shown, tags or fusion partners need not be part of it.
# T1: Long‐chain acyl‐CoA synthetase 5 (ACSL5) (human (endogenous in HCT116)) (UniProt Q9ULC5)
# T1 sequence: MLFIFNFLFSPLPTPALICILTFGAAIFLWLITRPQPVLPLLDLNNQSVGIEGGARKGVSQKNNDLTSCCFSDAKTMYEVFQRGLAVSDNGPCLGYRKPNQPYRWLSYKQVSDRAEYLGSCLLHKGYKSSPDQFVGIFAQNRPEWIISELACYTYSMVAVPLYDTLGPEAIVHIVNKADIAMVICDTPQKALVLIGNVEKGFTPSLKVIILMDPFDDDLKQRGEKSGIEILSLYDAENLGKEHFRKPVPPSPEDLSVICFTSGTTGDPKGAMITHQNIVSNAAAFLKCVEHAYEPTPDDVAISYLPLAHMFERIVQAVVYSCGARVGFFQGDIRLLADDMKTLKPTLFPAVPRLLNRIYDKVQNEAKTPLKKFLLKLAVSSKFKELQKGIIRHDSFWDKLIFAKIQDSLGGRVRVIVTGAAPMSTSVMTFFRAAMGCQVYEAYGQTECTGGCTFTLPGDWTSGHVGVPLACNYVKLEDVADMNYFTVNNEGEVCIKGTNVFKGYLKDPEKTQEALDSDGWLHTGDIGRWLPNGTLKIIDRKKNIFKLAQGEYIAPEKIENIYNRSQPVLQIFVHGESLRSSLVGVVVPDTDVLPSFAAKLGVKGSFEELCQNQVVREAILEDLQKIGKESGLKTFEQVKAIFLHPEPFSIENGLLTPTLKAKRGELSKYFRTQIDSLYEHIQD
# T2: TOM70 (human (endogenous in HCT116)) (UniProt O94826)
# T2 sequence: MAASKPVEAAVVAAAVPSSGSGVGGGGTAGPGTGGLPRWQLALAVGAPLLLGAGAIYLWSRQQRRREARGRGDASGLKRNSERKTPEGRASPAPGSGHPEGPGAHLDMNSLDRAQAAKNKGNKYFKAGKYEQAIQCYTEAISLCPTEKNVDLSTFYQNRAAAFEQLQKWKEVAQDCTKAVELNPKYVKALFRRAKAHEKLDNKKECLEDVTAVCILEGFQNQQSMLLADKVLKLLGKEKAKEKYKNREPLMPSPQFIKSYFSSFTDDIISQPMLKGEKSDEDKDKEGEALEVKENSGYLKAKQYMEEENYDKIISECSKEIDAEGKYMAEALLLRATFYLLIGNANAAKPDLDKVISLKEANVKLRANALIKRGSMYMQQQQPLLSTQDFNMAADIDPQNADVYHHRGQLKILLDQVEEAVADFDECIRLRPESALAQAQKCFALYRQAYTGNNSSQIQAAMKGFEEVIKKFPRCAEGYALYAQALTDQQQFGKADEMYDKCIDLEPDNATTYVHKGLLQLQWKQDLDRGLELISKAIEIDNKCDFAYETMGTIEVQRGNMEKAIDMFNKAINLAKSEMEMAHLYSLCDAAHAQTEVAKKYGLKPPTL
# T3: TOM40 (human (endogenous in HCT116)) (UniProt O96008)
# T3 sequence: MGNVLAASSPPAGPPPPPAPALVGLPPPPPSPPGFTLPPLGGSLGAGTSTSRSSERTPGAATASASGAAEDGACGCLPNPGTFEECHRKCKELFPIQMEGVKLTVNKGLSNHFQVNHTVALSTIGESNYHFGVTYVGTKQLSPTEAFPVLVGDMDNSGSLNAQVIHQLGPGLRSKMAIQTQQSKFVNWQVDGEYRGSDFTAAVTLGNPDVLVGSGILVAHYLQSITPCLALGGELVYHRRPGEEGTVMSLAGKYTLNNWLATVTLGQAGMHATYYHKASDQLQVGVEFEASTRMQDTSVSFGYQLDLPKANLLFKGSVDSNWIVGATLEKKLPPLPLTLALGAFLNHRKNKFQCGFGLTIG
# T4: HA and GFP epitope‐tagged IDH2 constructs (UniProt P48735)
# T4 sequence: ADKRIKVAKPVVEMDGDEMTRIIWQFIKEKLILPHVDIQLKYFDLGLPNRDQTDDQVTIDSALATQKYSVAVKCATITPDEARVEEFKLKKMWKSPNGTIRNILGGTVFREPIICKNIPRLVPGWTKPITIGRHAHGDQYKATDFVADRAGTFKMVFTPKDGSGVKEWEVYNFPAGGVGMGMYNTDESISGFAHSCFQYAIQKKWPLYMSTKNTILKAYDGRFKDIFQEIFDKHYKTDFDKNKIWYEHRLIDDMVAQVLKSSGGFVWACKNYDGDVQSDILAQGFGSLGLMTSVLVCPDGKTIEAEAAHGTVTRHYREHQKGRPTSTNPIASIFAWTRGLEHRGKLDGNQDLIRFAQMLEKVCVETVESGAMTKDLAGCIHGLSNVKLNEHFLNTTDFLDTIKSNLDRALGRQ
# B1: isocitrate dehydrogenase 2 (IDH2) (enzyme, UniProt P48735 40-452)
# chain: T4 sequence
# B2: Long‐chain acyl‐CoA synthetase 5 (ACSL5) (enzyme, UniProt Q9ULC5 1-683)
# chain: T1 sequence
# B3: TOM40 (protein, UniProt O96008 1-361)
# chain: T3 sequence
# B4: TOM70 (receptor, UniProt O94826 1-608)
# chain: T2 sequence
# Experiments:
# [1] = molecular target: T1, Long‐chain acyl‐CoA synthetase 5 (ACSL5) (human (endogenous in HCT116)); assay: co-IP; endogenous proteins of HCT116 lysate; IP lysis buffer (50 mM Tris-HCl pH 7.4, 150 mM NaCl, 1 mM EDTA, 5% glycerol, 0.4% Triton X-100, 0.4% NP-40); primary antibody overnight at 4 °C, Protein A/G beads 2 h, five washes; Western blot; in Figure 4I cells cultured with or without glutamine for 48 h
# [2] = molecular target: T2, TOM70 (human (endogenous in HCT116)); assay: as above
# [3] = molecular target: TOM20 (human (endogenous in HCT116)) (UniProt Q15388); assay: as above
# [4] = molecular target: T3, TOM40 (human (endogenous in HCT116)); assay: as above
# [5] = molecular target: MDM2 (human (endogenous in HCT116)) (UniProt Q00987); assay: co-IP; MDM2 immunoprecipitates of ubiquitination assays in sh-ctrl or sh-ACSL5 HCT116 cells, with or without glutamine deficiency, followed by MG132; blotted for ubiquitin, MDM2 and ACSL5
# [6] = molecular target: T4, HA and GFP epitope‐tagged IDH2 constructs; assay: co-IP; two-phase immunoprecipitation with HA- and GFP-tagged IDH2 constructs; endogenous ACSL5 detected; cells not shown
binder,measurement,setting,value
B1,binding,[1],binds
B2,binding,[2],no binding
same,binding,[3],binds
same,binding,[4],no binding
same,binding,[5],no binding
same,binding,[6],binds
B3,binding,[1],no binding
B4,binding,[1],no binding
